Test results reported in PubChem BioAssay AID894 (National Center for Advancing Translational Sciences (NCATS), 2007).
Several values for one entry are separate records, joined by “and”; a condition that tells them apart may be missing. Equal values may be shown once. The whole screen tested about 150,000 compounds, of which about 6,500 (4.3%) were called active. Inconclusive results, whose numbers are uncertain, are shown with a selection of clear calls. Calls follow the shape of the dose curve; as a rule, active = well fitted inhibition curve with a large enough effect (not every such curve was filed as active); inconclusive = small, poorly fitted or top-dose-only effect, or another doubt; inactive = no such curve, though single readings can be large or run the other way. Potencies of inconclusive entries are left out as doubtful fits.
% is scaled to controls: 0 for no effect and ±100 for the full control effect; potency is read from the fitted curve at half-maximal effect; tags tell the direction and shape of the fitted curve.

The compounds below were run against 15-hydroxyprostaglandin dehydrogenase [NAD(+)] (Homo sapiens) (UniProt P15428) (assay: qHTS Assay for Inhibitors of HPGD (15-Hydroxyprostaglandin Dehydrogenase)). Details: purified HPGD, NADH fluorescence kinetic, PGE2 substrate; activity change, negative = inhibition: active compounds read low.
Chain of UniProt P15428 (P15428 whole entry, looked up): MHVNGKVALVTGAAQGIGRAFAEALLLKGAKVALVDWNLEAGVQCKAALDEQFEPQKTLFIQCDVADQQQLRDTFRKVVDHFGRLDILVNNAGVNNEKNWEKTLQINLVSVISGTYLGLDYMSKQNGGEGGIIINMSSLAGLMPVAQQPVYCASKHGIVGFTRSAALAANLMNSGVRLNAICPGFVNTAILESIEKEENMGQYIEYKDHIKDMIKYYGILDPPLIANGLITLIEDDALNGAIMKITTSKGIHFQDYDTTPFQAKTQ
Summary of the method: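 NADH formation kinetics: reaction with 30 uM PGE2 and 1 mM NAD+ (final), 20 nM enzyme, Tris-HCl pH 8 with Tween 20, after 15 min compound preincubation at room temperature. Fluorescence change, last versus first of five reads.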
For `CCOc1ccc(C(=O)N/N=C(\c2ccccc2)c2ccccn2)cc1`, the Potency was inconclusive [inhibitor, single point].
`CC(C)(CO)NC(=O)CCCOc1ccc(Cl)cc1Cl` was tested, and the Potency was inconclusive [inhibitor, partial curve].
With `O=C(CC1N=C2c3ccccc3N=C(SCc3ccccc3Cl)N2C1=O)NCc1ccco1` (centres undefined) the Potency was inconclusive [inhibitor, partial curve].
`Cc1ccc(-c2csc(N(Cc3ccco3)C(=O)c3cccs3)n2)cc1` was tested, and the Potency was inconclusive [inhibitor, partial curve].
In the case of `CCN(CC)CCNC(=O)c1cc(Sc2nnc(C)s2)nc2ccccc12`, the Potency is reported as active: 1.26 µM.
In the case of `COc1ccc(NC(=O)CSC2CC(=O)N(c3ccc4c(c3)OCCO4)C2=O)cc1` (centres undefined), the activity change, negative = inhibition is reported as inactive: 1.69%.
`CCOc1c2ccc(C(=O)NCc3ccc(C(F)(F)F)cc3C(F)(F)F)cc2nn1C` was tested, and the Potency was inconclusive [inhibitor, partial curve].
`COC(=O)/C(=C/c1ccc2c(c1)c1ccccc1n2C)NC(=O)c1ccccc1` was tested, and the Potency was inconclusive [inhibitor, single point].
For `O=C1c2ccc(O)c(O)c2C(=O)c2c(O)ccc(O)c21`, the Potency was active: 11.2 µM.
For `CCOc1cnc(-c2ccc(Cl)cc2)o1`, the Potency was inconclusive [inhibitor, partial curve].
For `COc1ccccc1-c1nc(-c2ccc(Br)o2)no1`, the Potency was inconclusive [inhibitor, partial curve].
In the case of `O=C(CSc1nnc(-c2cnccn2)n1Cc1ccco1)c1ccc(Cl)cc1`, the Potency is reported as inconclusive [inhibitor, single point].
With `Cc1nn(C)cc1/C=N/NC(=O)c1sc2ccccc2c1Cl` the Potency was inconclusive [inhibitor, partial curve].
With `Cc1cccc2cc(C(c3nnnn3Cc3ccccc3)N3CCN(c4ccccc4)CC3)c(=O)[nH]c12` (centres undefined) the Potency was inconclusive [inhibitor, partial curve].
For `Cn1c(=O)c(CCc2ccccc2)nc2cncnc21`, the activity change, negative = inhibition was inactive: -11.4%.
With `CC(=O)OC1CC2C(C)(C)C(O)CC(O)[C@@]2(C)C2CC[C@@]3(C)C(=CC(=O)OC3c3ccoc3)[C@]12C` (some centres undefined) the Potency was active: 20 µM.
In the case of `CC(C(=O)Nc1ccc2nccnc2c1)N1C(=O)C2C3C=CC(C3)C2C1=O` (centres undefined), the Potency is reported as inconclusive [inhibitor, partial curve].
For `COc1ccc(OC)c(-c2cc(C(=O)Nc3cc(C)n(Cc4ccc(Cl)cc4)n3)no2)c1`, the Potency was inconclusive [inhibitor, partial curve].
With `CC(Oc1ccc(F)cc1F)C(=O)/C=C/N(C)C` (centres undefined) the Potency was inconclusive [inhibitor, partial curve].
In the case of `O=C(NCc1ccco1)c1cc(-c2cccs2)on1`, the Potency is reported as inconclusive [inhibitor, partial curve].
For `COc1ccc(/C=C/C(=O)NC(=S)NNC(=O)Cc2cccs2)cc1OC`, the Potency was inconclusive [inhibitor, partial curve].
In the case of `Cc1ccc(S(=O)(=O)c2c(N)n(Cc3ccco3)c3nc4ccccc4nc23)cc1`, the Potency is reported as inconclusive [inhibitor, partial curve].
In the case of `COc1cccc(-c2cc(=O)c3ccccc3o2)c1N`, the Potency is reported as active: 6.31 µM and active: 12.6 µM.
In the case of `Cc1cc(NC(=O)Cc2cccs2)no1`, the Potency is reported as inconclusive [inhibitor, single point].
In the case of `COc1cc(C)nc(N2CCC(C(=O)NC3CCCCC3)CC2)n1`, the Potency is reported as inconclusive [inhibitor, partial curve].
For `CSc1nnc2c3cc(C)ccc3n(Cc3ccccc3)c2n1`, the Potency was inconclusive [inhibitor, single point].
With `Cc1cc(C)c2nc(-c3ccccn3)cc(C(=O)Nc3cc(C)on3)c2c1` the Potency was inconclusive [inhibitor, single point].
With `CC1CCN(C(=O)COC(=O)c2cc3ccccc3cc2O)CC1` the Potency was inconclusive [inhibitor, partial curve].
For `CCOc1ccc2c(c1)C(C)=CC(C)(C)N2C(=O)Nc1ccccc1`, the Potency was inconclusive [inhibitor, partial curve].
In the case of `CC(=O)c1cccc(NC(=O)C(OC(=O)/C=C/c2ccc3c(c2)OCO3)c2ccccc2)c1` (centres undefined), the Potency is reported as inconclusive [inhibitor, partial curve].
`O=C(Nc1ccccc1C(=O)OCc1nnc(-c2ccccc2)o1)c1ccco1` was tested, and the Potency was inconclusive [inhibitor, partial curve].
For `COCC(C)OC(=O)C(C#N)c1nc2ccccc2nc1N1CCN(Cc2ccccc2)CC1` (centres undefined), the activity change, negative = inhibition was inactive: -22.9%.
In the case of `Cc1ccc(S(=O)(=O)c2c(N)n(/N=C/c3ccco3)c3nc4ccccc4nc23)cc1`, the Potency is reported as inconclusive [inhibitor, partial curve].
For `Cn1c(-c2ccc(F)cc2)cnc1NCc1cccc(F)c1`, the Potency was active: 15.8 µM.
For `O=[N+]([O-])c1cc(Cc2cc([N+](=O)[O-])c3cccnc3c2O)c(O)c2ncccc12`, the activity change, negative = inhibition was inactive: -11.9%.
For `Cc1[nH]n(C(N)=S)c(=O)c1N=Nc1ccc(S(=O)(=O)N2CCCC2)cc1`, the activity change, negative = inhibition was inactive: -29.8%.
With `COc1ccc(-c2cc(=O)c3cc(OC)ccc3o2)cc1` the Potency was inconclusive [inhibitor, full curve].
`COc1ccccc1OCCC(=O)OCC(=O)NC(C)c1ccccc1` (centres undefined) was tested, and the activity change, negative = inhibition was inactive: -9.95%.
In the case of `CCc1nnc(NC(=O)Cn2nnc(-c3ccccc3F)n2)s1`, the activity change, negative = inhibition is reported as inactive: -2.45%.
With `CSc1nnc(-c2sc3cc(C(F)(F)F)cnc3c2-c2ccccc2)n1C` the Potency was inconclusive [inhibitor, partial curve].
In the case of `Cc1ccc(C)c(-c2ccc(C(=O)O)o2)c1`, the Potency is reported as inconclusive [inhibitor, partial curve].
For `CC(=O)Nc1ccc(S(=O)(=O)NCCc2ccccc2)cc1`, the activity change, negative = inhibition was inactive: -7.41%.
For `Cc1cc(C(F)(F)F)nn1Cc1n[nH]c(=S)n1Cc1ccccc1`, the Potency was inconclusive [inhibitor, single point].
`CCCCCn1c(N2CCOCC2)nc2c1c(=O)n(CC(N)=O)c(=O)n2C` was tested, and the activity change, negative = inhibition was inactive: -9.55%.
In the case of `Cc1ccc2nc3c(cc(C(=O)NCCCn4ccnc4)n3C)c(=O)n2c1`, the Potency is reported as inconclusive [inhibitor, partial curve].
For `N#C/C(=C/c1ccc(N2CCOCC2)o1)c1ccc(Br)cc1`, the Potency was inconclusive [inhibitor, partial curve].
In the case of `NC1=NC(=O)/C(=C\c2cccs2)S1`, the activity change, negative = inhibition is reported as inactive: -17.1%.
With `CCC(=O)Nc1nc(-c2ccc3c(c2)OCCO3)cs1` the activity change, negative = inhibition was inactive: -5.44%.
With `Cc1cccn2c(=O)c3cc(C#N)c(=O)n(CC4CCCO4)c3nc12` (centres undefined) the Potency was inconclusive [inhibitor, partial curve].
`COc1ccc2cc(CN(CC3COCCO3)S(=O)(=O)c3ccc(Cl)cc3)c(=O)[nH]c2c1` (centres undefined) was tested, and the activity change, negative = inhibition was inactive: 26.4%.
For `COc1ccc(-c2cc(-c3ccc(Br)cc3)nc3ncnn23)cc1OC`, the Potency was inconclusive [inhibitor, partial curve].
In the case of `CC(=O)Oc1oc(-c2ccccc2)nc1/C=N/c1ccccn1`, the Potency is reported as active: 22.4 µM.
With `O/N=C1/CCCSc2ccccc21` the Potency was active: 11.2 µM.
In the case of `O=Cc1ccc2oc3nc4n(c(=O)c3c(=O)c2c1)CCCS4`, the Potency is reported as inconclusive [inhibitor, partial curve].
For `COc1ccc(/C=N/NC(=O)c2ccc(Br)cc2)cc1Cn1cc(Cl)cn1`, the Potency was inconclusive [inhibitor, partial curve].
For `O=C(O)CCc1nc2ccccc2n(CCc2ccccc2)c1=O`, the Potency was inconclusive [inhibitor, partial curve].
For `C=CC(C1=CC(=O)C(OC)=CC1=O)c1ccc(OC)cc1` (centres undefined), the Potency was inconclusive [inhibitor, single point].
With `COc1cc(OC)cc(-c2sc3ccccc3c(=O)c2I)c1` the Potency was inconclusive [inhibitor, partial curve, poor fit].
`CC(Cc1ccccc1)C(=O)NCc1nc2ccccc2s1` (centres undefined) was tested, and the Potency was inconclusive [inhibitor, partial curve].
For `N[C@@](C(=O)O)(c1ccc(P(=O)(O)O)cc1)C1CC1`, the activity change, negative = inhibition was inactive: -7.05%.
For `COCc1cc(C)n(CC(=O)Nc2ccccc2C(=O)OC)c(=O)c1C#N`, the Potency was inconclusive [inhibitor, single point].
In the case of `O=[N+]([O-])c1cc(Cl)ccc1NCCNS(=O)(=O)c1ccccc1`, the activity change, negative = inhibition is reported as inactive: -7.62%.
`Cc1cc(C)n2nc(SCc3nnc(SCc4ccccc4Cl)s3)nc2n1` was tested, and the Potency was active: 28.2 µM.
With `O=c1c(-c2ccco2)[n+]([O-])c2ccccc2n1OCc1ccccc1` the Potency was inconclusive [inhibitor, single point].
In the case of `COc1ccc(-c2nnc(NC(=O)CSc3ccc(C)cc3)s2)cc1OC`, the Potency is reported as inconclusive [inhibitor, partial curve].
`COc1ncc2nc(-c3cc(F)cc(F)c3)c(=O)n(CCc3ccccc3)c2n1` was tested, and the Potency was inconclusive [inhibitor, partial curve].
With `Cc1cccc(-c2nc3ccccc3c(=O)n2NC(=S)N(C)C)c1` the Potency was active: 15.8 µM.
For `CC1=C(C(=O)N2CCCCC2)C2(CCC(C)CC2)OC1=O` (centres undefined), the Potency was inconclusive [inhibitor, partial curve].
With `Cc1cc(C(F)(F)F)n(-c2nc(C(=O)N/N=C/c3ccc(F)cc3)cs2)n1` the Potency was active: 28.2 µM.
